The other results are listed elsewhere or left out. Single values are uncertain, as repeats are few or missing.
Tests used:
Test in all cases: cell count relative to DMSO control; melanoma cells; higher = more viable cells
Settings in all cases: library dose: low library concentration; 72 h
[1] = tested on: MZ2-MEL
[2] = tested on: MeWo
[3] = tested on: RPMI7951
[4] = tested on: RVH-421
[5] = tested on: SkMel28
[6] = tested on: SkMel2
[7] = tested on: SkMel30
[8] = tested on: SkMel5
[9] = tested on: UACC257
[10] = tested on: UACC62
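Also: cell number obtained by counting DAPI-stained nuclei in high-throughput microscope images with image analysis software, screen run in 1,536-well plates.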

SMILES | cell count [1] [%] | cell count [2] [%] | cell count [3] [%] | cell count [4] [%] | cell count [5] [%] | cell count [6] [%] | cell count [7] [%] | cell count [8] [%] | cell count [9] [%] | cell count [10] [%]
CN1CCN(c2ccc3nc(-c4c(N)c5c(F)cccc5[nH]c4=O)[nH]c3c2)CC1 [Dovitinib] + CC(C)(C)c1cnc(CSc2cnc(NC(=O)C3CCNCC3)s2)o1 [SNS-032] (first compound 0.1 µM, partner dose 0.01 µM) | 88.2 | 95.5 | 100 | 102 | 108 | 97.4 | 82.8 | 95.1 | 109 | 83.7
CS(=O)(=O)CCNCc1ccc(-c2ccc3ncnc(Nc4ccc(OCc5cccc(F)c5)c(Cl)c4)c3c2)o1 [lapatinib] + COc1cc2ncnc(Nc3ccc(Oc4ccccc4)cc3)c2cc1OC [SrcI1] (first compound 0.8 µM, partner dose 2 µM) | 89.7 | 109 | 92.4 | 112 | 87.1 | 98.9 | 92.1 | 95 | 118 | 108
CNC(=O)c1cc(Oc2ccc(NC(=O)Nc3ccc(Cl)c(C(F)(F)F)c3)cc2)ccn1 [sorafenib] + COc1ccc(COc2ccc(Cc3cnc(N)nc3N)cc2OC)cc1 [GW2580] (first compound 0.4 µM, partner dose 1 µM) | 82.3 | 108 | 98.7 | 97.2 | 87.8 | 111 | 104 | 80 | 84 | 96.3
CNC(=O)c1cc(Oc2ccc(NC(=O)Nc3ccc(Cl)c(C(F)(F)F)c3)cc2)ccn1 [sorafenib] + COC(=O)c1sccc1S(=O)(=O)Nc1ccc(Nc2ccccc2)cc1OC [GSK0660] (first compound 0.4 µM, partner dose 1 µM) | 89 | 90.8 | 98.2 | 105 | 82.7 | 96.6 | 87.8 | 113 | 80.3 | 76.9
C[C@@H](Oc1cc(-c2cnn(C3CCNCC3)c2)cnc1N)c1c(Cl)ccc(F)c1Cl [Crizotinib] + O=C(O)C(=O)Nc1sc2c(c1C(=O)O)CCNC2 [TCS401] (first compound 0.2 µM, partner dose 1.66667 µM) | 101 | 99.2 | 102 | 83 | 85 | 103 | 112 | 88.8 | 104 | 94.8
C[C@@H](Oc1cc(-c2cnn(C3CCNCC3)c2)cnc1N)c1c(Cl)ccc(F)c1Cl [Crizotinib] + COc1ccc2c(c1)CCC1C2CCC2(C)C(NCCCCCCN3C(=O)C=CC3=O)CCC12 [U73122] (first compound 0.2 µM, partner dose 0.4 µM) | 97.6 | 106 | 95.2 | 65.1 | 97.8 | 93.2 | 114 | 99.6 | 94.8 | 90.7
CN1CCN(c2ccc3nc(-c4c(N)c5c(F)cccc5[nH]c4=O)[nH]c3c2)CC1 [Dovitinib] + NC(=O)Nc1cc(-c2cccc(F)c2)sc1C(=O)N[C@H]1CCCNC1 [AZD7762] (first compound 0.1 µM, partner dose 0.02 µM) | 114 | 98.8 | 108 | 102 | 90 | 106 | 101 | 109 | 87 | 76.2
C[C@@H](Oc1cc(-c2cnn(C3CCNCC3)c2)cnc1N)c1c(Cl)ccc(F)c1Cl [Crizotinib] + COc1ccc(COc2ccc(Cc3cnc(N)nc3N)cc2OC)cc1 [GW2580] (first compound 0.2 µM, partner dose 1 µM) | 96 | 91.7 | 104 | 110 | 83.7 | 104 | 91.2 | 88.6 | 95.1 | 105
CN1CCN(c2ccc3nc(-c4c(N)c5c(F)cccc5[nH]c4=O)[nH]c3c2)CC1 [Dovitinib] + Oc1cc(-c2nc(-c3ccccc3)[nH]c2-c2ccncc2)ccc1Cl [L779450] (first compound 0.1 µM, partner dose 0.2 µM) | 74.2 | 98.9 | 108 | 76 | 80.5 | 109 | 86.8 | 87.9 | 85.2 | 67.1
CS(=O)(=O)CCNCc1ccc(-c2ccc3ncnc(Nc4ccc(OCc5cccc(F)c5)c(Cl)c4)c3c2)o1 [lapatinib] + NCC(=O)Nc1ccc(-n2nc(C(F)(F)F)cc2-c2ccc3c(ccc4ccccc43)c2)cc1 [OSU03012] (first compound 0.8 µM, partner dose 1 µM) | 81.5 | 63.4 | 97 | 79.9 | 80.3 | 60.1 | 62.8 | 93.4 | 114 | 92.5
CN1CCN(c2ccc3nc(-c4c(N)c5c(F)cccc5[nH]c4=O)[nH]c3c2)CC1 [Dovitinib] + COc1cc2ncnc(Nc3ccc(Oc4ccccc4)cc3)c2cc1OC [SrcI1] (first compound 0.1 µM, partner dose 2 µM) | 95 | 89.6 | 117 | 112 | 102 | 112 | 103 | 87.2 | 115 | 102
C=CCNC1=C2C[C@@H](C)C[C@H](OC)[C@H](O)[C@@H](C)/C=C(\C)[C@H](OC(N)=O)[C@@H](OC)/C=C\C=C(/C)C(=O)NC(=CC1=O)C2=O [Tanespimycin] + COc1cc2ncnc(Nc3ccc(Oc4ccccc4)cc3)c2cc1OC [SrcI1] (first compound 0.002 µM, partner dose 2 µM) | 98.1 | 88.3 | 105 | 103 | 99.8 | 92.9 | 103 | 107 | 120 | 112
C[C@@H](Oc1cc(-c2cnn(C3CCNCC3)c2)cnc1N)c1c(Cl)ccc(F)c1Cl [Crizotinib] + CCCCCCCCCCCC1=C(O)C(=O)C=C(O)C1=O [Embelin] (first compound 0.2 µM, partner dose 1.2 µM) | 102 | 101 | 111 | 137 | 108 | 103 | 107 | 108 | 111 | 105
CNC(=O)c1cc(Oc2ccc(NC(=O)Nc3ccc(Cl)c(C(F)(F)F)c3)cc2)ccn1 [sorafenib] + CN(NC(=O)CC(=O)NN(C)C(=S)c1ccccc1)C(=S)c1ccccc1 [STA4783] (first compound 0.4 µM, partner dose 0.006 µM) | 110 | 89.9 | 95.5 | 88 | 88.2 | 100 | 111 | 90.3 | 91.9 | 97.7
CS(=O)(=O)CCNCc1ccc(-c2ccc3ncnc(Nc4ccc(OCc5cccc(F)c5)c(Cl)c4)c3c2)o1 [lapatinib] + CCN(CC)CCCCNc1ncc2cc(-c3cc(OC)cc(OC)c3)c(NC(=O)NC(C)(C)C)nc2n1 [PD173074] (first compound 0.8 µM, partner dose 0.1 µM) | 96.2 | 83.9 | 92.2 | 111 | 94.1 | 98.1 | 94.7 | 105 | 91.9 | 91.7
CNC(=O)c1cc(Oc2ccc(NC(=O)Nc3ccc(Cl)c(C(F)(F)F)c3)cc2)ccn1 [sorafenib] + COc1ccc(-c2ccc3c(N4CCOCC4)nc(N4C[C@@H](C)O[C@@H](C)C4)nc3n2)cc1CO [KU0063794] (first compound 0.4 µM, partner dose 0.02 µM) | 92.5 | 113 | 96.8 | 99.3 | 88.5 | 98.3 | 81.8 | 88.2 | 91 | 95.1
CN1CCN(c2ccc3nc(-c4c(N)c5c(F)cccc5[nH]c4=O)[nH]c3c2)CC1 [Dovitinib] + O=C1NC(=O)/C(=C/c2ccc(-c3ccc(F)cc3O)o2)S1 [AS252424] (first compound 0.1 µM, partner dose 1 µM) | 84.6 | 82.2 | 94 | 100 | 87.8 | 92.3 | 64.2 | 82.6 | 78.2 | 83
C=CCNC1=C2C[C@@H](C)C[C@H](OC)[C@H](O)[C@@H](C)/C=C(\C)[C@H](OC(N)=O)[C@@H](OC)/C=C\C=C(/C)C(=O)NC(=CC1=O)C2=O [Tanespimycin] + C=CCn1c(=O)c2cnc(Nc3ccc(N4CCN(C)CC4)cc3)nc2n1-c1cccc(C(C)(C)O)n1 [MK1775] (first compound 0.002 µM, partner dose 0.02 µM) | 104 | 109 | 86.3 | 99.8 | 79.1 | 83.6 | 87.9 | 71.9 | 76.8 | 81.4
C=CCNC1=C2C[C@@H](C)C[C@H](OC)[C@H](O)[C@@H](C)/C=C(\C)[C@H](OC(N)=O)[C@@H](OC)/C=C\C=C(/C)C(=O)NC(=CC1=O)C2=O [Tanespimycin] + OCCn1cc(-c2cnc3nnn(Cc4ccc5ncccc5c4)c3n2)cn1 [PF04217903] (first compound 0.002 µM, partner dose 1 µM) | 109 | 93 | 85.2 | 105 | 96.5 | 102 | 117 | 95 | 109 | 100
C=CCNC1=C2C[C@@H](C)C[C@H](OC)[C@H](O)[C@@H](C)/C=C(\C)[C@H](OC(N)=O)[C@@H](OC)/C=C\C=C(/C)C(=O)NC(=CC1=O)C2=O [Tanespimycin] + COc1cc(Nc2ncc(F)c(Nc3ccc4c(n3)NC(=O)C(C)(C)O4)n2)cc(OC)c1OC [Tamatinib] (first compound 0.002 µM, partner dose 0.4 µM) | 95.7 | 81.9 | 74.4 | 94.8 | 90.4 | 92.3 | 90.1 | 87.1 | 78 | 80.5
CNC(=O)c1cc(Oc2ccc(NC(=O)Nc3ccc(Cl)c(C(F)(F)F)c3)cc2)ccn1 [sorafenib] + NCC(=O)Nc1ccc(-n2nc(C(F)(F)F)cc2-c2ccc3c(ccc4ccccc43)c2)cc1 [OSU03012] (first compound 0.4 µM, partner dose 1 µM) | 87.6 | 57.2 | 89.9 | 76.5 | 80.7 | 80.5 | 59.1 | 91.8 | 109 | 84.5
CN1CCN(c2ccc3nc(-c4c(N)c5c(F)cccc5[nH]c4=O)[nH]c3c2)CC1 [Dovitinib] + Oc1nc(-c2ccc(C(F)(F)F)cc2)nc2c1CSCC2 [XAV939] (first compound 0.1 µM, partner dose 2 µM) | 92.9 | 90.1 | 97.2 | 79 | 80.5 | 97.2 | 93.6 | 84.3 | 91.8 | 78

Source: the supplement of paper PMC4604168 (melanoma cell lines)
